This is an account of results in the RNAGym collection of RNA variant scans (doi:10.1093/nar/gkz1192).

B1: CPEB3 Ribozyme (parent)
chain: UAACAGGGGGCCACAGCAGAAGCGUUCACGUCGCAGCCCCUGUCAGAUUCUGGUGAAUCUGCGAAUUCUGCUGUAUAUCUC

The source gives no read counts; variants with many changes may rest on few reads.

Variants of B1 are the subject of the data set. Put plainly: self-cleavage, relative activity (ratio to wild type); higher = more cleavage; in vitro, sequencing. Put shortly:
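Libraries of CPEB3 self-cleaving ribozyme mutants came from rounds of error-prone PCR and carried barcodes, which DNA sequencing matched to variants. In vitro transcription used T7 RNA polymerase at 37°C for 5 hours, with a further 15 min in DNase I before EDTA stopped the reaction; the ribozymes cleaved during both steps. The RNA was reverse transcribed with template switching and sequenced on Illumina. Relative activity is the cleaved/total read fraction of a variant divided by that of the unmutated ribozyme, averaged over three batches with at least 5 reads.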
UAACAGGGGGCCACAGCAGAAGCGUUCACGUCGCAGCCCCUGCCAGACUCUGGUGAAUCUGAGAAUUCUGCUGUAUAUCUA: the self-cleavage was 0.25. Under UAACAGGGGGCCACAGCAGAAGCGUUCACGUCGCAGCCCCUGCCAGAUUCUGGUGGAUCAGCGAAUUCUGCUGUAUAUCUC stands 0.21.

On to UAACAGGGGGCCACAGCAGAAGCGUUCACGUCGCAGCCCCUGCCAGAUUCUGGUGAAUCUGCCAAUUCUGCUGCAUAUCUC, for which the self-cleavage amounted to 1.

As to UAACAGGGGGCCACAGCAGAAGCGUUCACGUCGCAGCCCCUGCCAGAUUCUGGUGAAUCUGCGAUCUCUGCAUUAUAUCUC, the self-cleavage was 0.15. To UAACAGGGGGCCACAGCAGAAGCGUUCACGUCGCAGCCCCUGCCAGAUUCUGGUGAGUCUGCGAACUCUGCUGUAUAUCUC belongs 0.11; to UAACAGGGGGCCACAGCAGAAGCGUUCACGUCGCAGCCCCUGCCAGAUUCUGGUGAGUCUGCGAACUCUGCUGUAUAACUC, 0.23.

As to UAACAGGGGGCCACAGCAGAAGCGUUCACGUCGCAGCCCCUGCCAGAUUCUGGUAAAUCUGCGACUUCUGCUGUAUAUCUC, the self-cleavage stood at 0.51. To UAACAGGGGGCCACAGCAGAAGCGUUCACGUCGCAGCCCCUGCCAGAUUCUGGUGAUUCUGCGAAUUCUGCUGUAUGUCUC belongs 0.2.

Take UAACAGGGGGCCACAGCAGAAGCGUUCACGUCGCAGCCCCUGCCAGAUUCUGGUGAAUUUGCGAAUUCUGCUGUAUAUCCC: the self-cleavage is 0.46.

On to UAACAGGGGGCCACAGCAGAAGCGUUCACGUCGCAGCCCCUGCCAGUUCCUGGUGAAUCUGCGAAUUCUGCUGUAUAUCUC, for which the self-cleavage is 0.32. To UAACAGGGGGCCACAGCAGAAGCGUUCACGUCGCAGCCCCUGCCAGAUUCUGGUGGGUCUGCGAAUUCUGCUGUAUAUCUC belongs 0.17; to UAACAGGGGGCCACAGCAGAAGCGUUCACGUCGCAGCCCCUGCCAGAUUCUGGUGAAUCUGCGAGUUCUGCUAUAUAUCUC, 0.69.

Turning to UAACAGGGGGCCACAGCAGAAGCGUUCACGUCGCAGCCCCUGCCAGAUUCUGGUGGAUCUGCGAAUUCUGCUGUAUAUCCC, the self-cleavage is 0.32.

Take UAACAGGGGGCCACAGCAGAAGCGUUCACGUCGCAGCCCCUGCCAGAUUCUGGUGGAUCUGCGAAUUCCGCUGUAUAUCCC: the self-cleavage stood at 0.15. To UAACAGGGGGCCACAGCAGAAGCGUUCACGUCGCAGCCCCUGCCAGAUUCUGGUGGAUCUGCGAAUUGUGCCGUAGAUCUC belongs 0.07. In the case of UAACAGGGGGCCACAGCAGAAGCGUUCACGUCGCAGCCCCUGCCAGAUUCUGGUGAAUCUGAAAAUUCUGCUGUAUAUCUC, the self-cleavage turned out to be 0.13. Under UAACAGGGGGCCACAGCAGAAGCGUUCACGUCGCAGCCCCUGCCAGAUUCUGGUGUAUCUGCGUAUUCUGCUGUAUAUCUC stands 0.13. As to UAACAGGGGGCCACAGCAGAAGCGUUCACGUCGCAGCCCCUGCCAGGUUCUGGUGAAUCUGCGGAUUCUGCCGUAUAUCUC, the self-cleavage is 0.37. Under UAACAGGGGGCCACAGCAGAAGCGUUCACGUCGCAGCCCCUGCCAGAUUCUGGUGGAUCUGCGAAUUCUGCAGCAUAUCUC stands 0.24. Under UAACAGGGGGCCACAGCAGAAGCGUUCACGUCGCAGCCCCUGCCAGACUCUGGUGAAUCUGCGUAUACUGCUGUAUGUCCC stands 0.17; under UAACAGGGGGCCACAGCAGAAGCGUUCACGUCGCAGCCCCUGCAAGAUUCUGGUGAAUCUGCGAAUUCUGCUGAAUAUCUC, 0. To UAACAGGGGGCCACAGCAGAAGCGUUCACGUCGCAGCCCCUGCCAGGUUCUGGUGAAUCUGCGAAUUCUGAUGUGUACCUC belongs 0.1.

Take UAACAGGGGGCCACAGCAGAAGCGUUCACGUCGCAGCCCCUGCCAGAUUCUGGUGAAUACGCGAAUUCUGCUGUAUAUCUC: the self-cleavage was found to be 0.12.

As for UAACAGGGGGCCACAGCAGAAGCGUUCACGUCGCAGCCCCUGCCAGAAUCUGGUGGAUCUGCGAAUUCUGCUGUAUAUCUC, the self-cleavage stood at 0.18. For the variant UAACAGGGGGCCACAGCAGAAGCGUUCACGUCGCAGCCCCUGCCAGAUUCUGGUGGAUCUGCGGAUUCUGCUGUAUGUCCC, the self-cleavage was 0.11. To UAACAGGGGGCCACAGCAGAAGCGUUCACGUCGCAGCCCCUGCCAGAUUCUGGUGACUCCGCGAACUCUGCCGUAUAUCUC belongs 0.29; to UAACAGGGGGCCACAGCAGAAGCGUUCACGUCGCAGCCCCUGCCAGGUUCUGGGGAAUCUGCGAAUUCUGCUGUAUAUCUC, 0.29.

Turning to UAACAGGGGGCCACAGCAGAAGCGUUCACGUCGCAGCCCCUGCCAGAUUCUGGUGAAUCUGCGUAUUCUGCUGUGUAUCUC, the self-cleavage was determined as 0.13.

In the case of UAACAGGGGGCCACAGCAGAAGCGUUCACGUCGCAGCCCCUGCCAGAUUCUGGUGAAUCUGCGGAUUCUGCUGCAUAUCUC, the self-cleavage was determined as 0.85. To UAACAGGGGGCCACAGCAGAAGCGUUCACGUCGCAGCCCCUGCCAGAUUCUGGUGAAUCUGCGAGUUCUGCUGUACUUCUC belongs 0.12. Take UAACAGGGGGCCACAGCAGAAGCGUUCACGUCGCAGCCCCUGCCAGAUUCUGGUGGAUCUGCGAACUCUGCUGUAUAUCCC: the self-cleavage turned out to be 0.11. Under UAACAGGGGGCCACAGCAGAAGCGUUCACGUCGCAGCCCCUGCCAGAUUCUGGUGAAUCUGCGUAUUCGGCCGUAUAUCUC stands 0.17. Under UAACAGGGGGCCACAGCAGAAGCGUUCACGUCGCAGCCCCUGCCAGAUUCUGGUGAAUCUGCGAUUUCUGCUGUUCAUCUC stands 0.14; under UAACAGGGGGCCACAGCAGAAGCGUUCACGUCGCAGCCCCUGCCAGAUUCUGGUGAGUCUGCGUAUUCUGCUGUAUAUCUC, 0.14.
